Laboratory results as given in paper PMC3052287 (Psychopharmacology, 2010).
Read-outs that look alike come from different tables or passages of the source. Each block holds one compound with its values, some of them ahead of it.

How the values were obtained:
h5-HT7 receptor [1] = target: T1, h5-HT7 receptor (Homo sapiens, UniProt P34969)
h5-HT7 receptor [2] = target: T1, h5-HT7 receptor; assay: Homogenate radioligand binding
h5-HT7 receptor [3] = target: T1, h5-HT7 receptor; details: cited from earlier work
[4] = target: h5-HT7 receptor homodimers (Homo sapiens, UniProt P34969); assay: Bioluminescence resonance energy transfer; format: cell-based; details: 1 μM drug; cells expressing Rluc and YFP forms of h5-HT7; data not shown
Sequence of h5-HT7 receptor homodimers (P34969 whole entry): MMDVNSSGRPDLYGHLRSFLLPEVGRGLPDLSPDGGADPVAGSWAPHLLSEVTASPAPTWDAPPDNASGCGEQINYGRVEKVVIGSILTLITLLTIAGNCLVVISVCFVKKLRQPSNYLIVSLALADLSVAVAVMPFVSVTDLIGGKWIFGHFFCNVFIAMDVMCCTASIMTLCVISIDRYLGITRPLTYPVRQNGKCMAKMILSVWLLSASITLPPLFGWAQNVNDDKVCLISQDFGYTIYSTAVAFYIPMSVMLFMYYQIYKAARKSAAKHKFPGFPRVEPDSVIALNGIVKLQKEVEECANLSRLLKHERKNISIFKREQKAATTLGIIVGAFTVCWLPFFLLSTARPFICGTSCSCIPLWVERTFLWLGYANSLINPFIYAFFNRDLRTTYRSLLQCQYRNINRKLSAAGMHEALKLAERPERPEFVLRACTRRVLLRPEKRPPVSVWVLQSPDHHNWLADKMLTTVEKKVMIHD
Sequence of h5-HT7 receptor homodimers (P34969 whole entry): as above

h5-HT7 receptor [5] = target: T1, h5-HT7 receptor; remark: listed apart in the source
[6] = 10 nM risperidone pre-treatment, wash, 1 μM drug 90 min, 10 μM 5-HT

T1 sequence (P34969 whole entry): as above

reactivation of risperidone-inactivated h5-HT7 receptors (h5-HT7 receptor [1]; [6]): reactivation of the receptor
Compound: CN1CCC(=C2c3ccccc3C=Cc3ccccc32)CC1 [cyproheptadine]

Compound: CN(C)CCSc1nc2ccccc2cc1-c1ccccc1 [ICI169369]
Ki (h5-HT7 receptor [2]; read-out: Membrane homogenate Ki, Fig. 5 legend, membrane homogenates): 393 ± 54 nM
reactivation of risperidone-inactivated h5-HT7 receptors (h5-HT7 receptor [1]): reactivation of the receptor

Compound: CC(C)C[C@H]1C(=O)N2CCC[C@H]2[C@]2(O)O[C@](NC(=O)[C@@H]3C=C4c5cccc6[nH]c(Br)c(c56)C[C@H]4N(C)C3)(C(C)C)C(=O)N12 [bromocriptine]
share of h5-HT7 binding sites bound in a wash-resistant manner (h5-HT7 receptor [3]): all the h5-HT7 receptors

Compound: NCCc1c[nH]c2ccc(O)cc12 [5-HT]
change in BRET signal [4]: did not produce a significant change

Compound: CN1C[C@@H](NS(=O)(=O)N(C)C)C[C@@H]2c3cccc4c3c(cn4C)C[C@H]21 [[^3H]mesulergine]
Bmax (h5-HT7 receptor [5]; estimated from homologous competition curve data): 2,700 fmol/mg protein
absolute level of binding (h5-HT7 receptor [5]; intact cells, 1 nM radioligand): 120 fmol/mg

Compound: CN1C[C@@H](NS(=O)(=O)N(C)C)C[C@@H]2c3cccc4c3c(cn4C)C[C@H]21 [mesulergine]
Ki (h5-HT7 receptor [2]): 2.8 nM
rightward shift of competition curve (h5-HT7 receptor [2]; [3H]5-HT raised from 1 to 10 nM, membrane homogenates): fourfold
reactivation of risperidone-inactivated h5-HT7 receptors (h5-HT7 receptor [1]; [6]): reactivation of the receptor
reactivation of risperidone-inactivated receptors (h5-HT7 receptor [1]; 1 μM mesulergine after inactivator and wash, 10 μM 5-HT): able to reactivate
effect on wash-resistant [3H]risperidone binding (h5-HT7 receptor [5]; 1 μM drug added to intact cells): dissociation of [^3H]risperidone from the receptor

Compound: Cc1nc2n(c(=O)c1CCN1CCC(c3noc4cc(F)ccc34)CC1)CCCC2 [risperidone]
change in BRET signal [4]: did not produce a significant change
